# The other results are listed elsewhere or left out.
# B1: GSL-I-B4 (Griffonia simplicifolia) (protein)
# chain: NFWSDVEDSIIFQGDANTTAGTLQLCKTNQYGTPLQWSAGRALYSDPVQLWDNKTESVASFYTEFTFFLKITGNGPADGLAFFLAPPDSDVKDAGEYLGLFNKSTATQPSKNQVVAVEFDTWTNPNFPEPSYRHIGINVNSIVSVATKRWEDSDIFSGKIATARISYDGSAEILTVVLSYPDGSDYILSHSVDMRQNLPESVRVGISASTGNNQFLTVYILSWRFSSNLQSTSVKAAMEPEITRTVV
# Assays:
# Test in all cases: glycan array binding signal (z-score within array); higher = stronger binding
# Details in all cases: glycan notation: IUPAC condensed, linker removed
# [1] = target: Gal(a1-3)Gal(b1-3)GlcNAc
# In short: (§1)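 The Consortium for Functional Glycomics database supplied 3228 glycan arrays, of which those lacking an available protein sequence were dropped. The binding signal, a within-array Z-score, was averaged across arrays of the same protein sequence and across linkers. Negative scores can be read as non-binding.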
# [2] = target: Gal(a1-3)Gal(b1-3)GlcNAc(b1-2)Man
# In short: as §1
# [3] = target: Gal(a1-3)Gal(b1-3)GlcNAc(b1-2)Man(a1-3)[Gal(a1-3)Gal(b1-3)GlcNAc(b1-2)Man(a1-6)]Man(b1-4)GlcNAc(b1-4)GlcNAc
# In short: as §1
# [4] = target: Gal(a1-3)Gal(b1-3)GlcNAc(b1-3)GalNAc
# In short: as §1
# [5] = target: Gal(a1-3)Gal(b1-3)GlcNAc(b1-6)GalNAc
# In short: as §1
# [6] = target: Gal(a1-3)Gal(b1-3)[Fuc(a1-4)]GlcNAc(b1-2)Man(a1-3)[Gal(a1-3)Gal(b1-3)[Fuc(a1-4)]GlcNAc(b1-2)Man(a1-6)]Man(b1-4)GlcNAc(b1-4)GlcNAc
# In short: as §1
# [7] = target: Gal(a1-3)Gal(b1-4)Glc
# In short: as §1
# [8] = target: Gal(a1-3)Gal(b1-4)GlcNAc
# In short: as §1
# [9] = target: Gal(a1-3)Gal(b1-4)GlcNAc(b1-2)Man
# In short: as §1
# [10] = target: Gal(a1-3)Gal(b1-4)GlcNAc(b1-2)Man(a1-3)[Gal(a1-3)Gal(b1-4)GlcNAc(b1-2)Man(a1-6)]Man(b1-4)GlcNAc(b1-4)GlcNAc
# In short: as §1
# [11] = target: Gal(a1-3)Gal(b1-4)GlcNAc(b1-3)GalNAc
# In short: as §1
# [12] = target: Gal(a1-3)Gal(b1-4)GlcNAc(b1-6)GalNAc
# In short: as §1
# [13] = target: Gal(a1-3)Gal(b1-4)[Fuc(a1-3)]GlcNAc
# In short: as §1
# [14] = target: Gal(a1-3)Gal(b1-4)[Fuc(a1-3)]GlcNAc(b1-2)Man(a1-3)[Gal(a1-3)Gal(b1-4)[Fuc(a1-3)]GlcNAc(b1-2)Man(a1-6)]Man(b1-4)GlcNAc(b1-4)GlcNAc
# In short: as §1
# [15] = target: Gal(a1-3)GalNAc
# In short: as §1
# [16] = target: Gal(a1-3)[Gal(a1-4)]Gal(b1-4)GlcNAc
# In short: as §1
# [17] = target: Gal(a1-4)Gal(b1-3)GlcNAc(b1-2)Man(a1-3)[Gal(a1-4)Gal(b1-3)GlcNAc(b1-2)Man(a1-6)]Man(b1-4)GlcNAc(b1-4)GlcNAc
# In short: as §1
# [18] = target: Gal(a1-4)Gal(b1-4)Glc
# In short: as §1
# [19] = target: Gal(a1-4)Gal(b1-4)GlcNAc
# In short: as §1
# [20] = target: Gal(a1-4)Gal(b1-4)GlcNAc(b1-2)Man(a1-3)[Gal(a1-4)Gal(b1-4)GlcNAc(b1-2)Man(a1-6)]Man(b1-4)GlcNAc(b1-4)GlcNAc
# In short: as §1
# [21] = target: Gal(a1-4)Gal(b1-4)GlcNAc(b1-3)Gal(b1-4)Glc
# In short: as §1
# [22] = target: Gal(a1-4)GlcNAc
# In short: as §1
# [23] = target: Gal(a1-6)Glc
# In short: as §1
# [24] = target: Gal(b1-2)Gal
# In short: as §1
# [25] = target: Gal(b1-3)Gal
# In short: as §1
# [26] = target: Gal(b1-3)Gal(b1-4)GlcNAc
# In short: as §1
# [27] = target: Gal(b1-3)GalNAc
# In short: as §1
# [28] = target: Gal(b1-3)GalNAc(a1-3)[Fuc(a1-2)]Gal(b1-4)Glc
# In short: as §1
# [29] = target: Gal(b1-3)GalNAc(a1-3)[Fuc(a1-2)]Gal(b1-4)GlcNAc
# In short: as §1
# [30] = target: Gal(b1-3)GalNAc(b1-3)Gal
# In short: as §1
# [31] = target: Gal(b1-3)GalNAc(b1-3)Gal(a1-4)Gal(b1-4)Glc
# In short: as §1
# [32] = target: Gal(b1-3)GalNAc(b1-4)Gal(b1-4)Glc
# In short: as §1
# [33] = target: Gal(b1-3)GalNAc(b1-4)[Neu5Ac(a2-3)]Gal(b1-4)Glc
# In short: as §1
# [34] = target: Gal(b1-3)GlcNAc
# In short: as §1
# [35] = target: Gal(b1-3)GlcNAc(a1-3)Gal(b1-4)GlcNAc
# In short: as §1
# [36] = target: Gal(b1-3)GlcNAc(a1-6)Gal(b1-4)GlcNAc
# In short: as §1
# [37] = target: Gal(b1-3)GlcNAc(b1-2)Man
# In short: as §1
# [38] = target: Gal(b1-3)GlcNAc(b1-2)Man(a1-3)[Gal(b1-3)GlcNAc(b1-2)Man(a1-6)]Man(b1-4)GlcNAc(b1-4)GlcNAc
# In short: as §1
binder,measurement,setting,value
B1,glycan array binding signal (z-score),[1],0.902
same,glycan array binding signal (z-score),[2],1.88
same,glycan array binding signal (z-score),[3],0.045
same,glycan array binding signal (z-score),[4],0.422
same,glycan array binding signal (z-score),[5],0.358
same,glycan array binding signal (z-score),[6],0.594
same,glycan array binding signal (z-score),[7],0.147
same,glycan array binding signal (z-score),[8],2
same,glycan array binding signal (z-score),[9],0.95
same,glycan array binding signal (z-score),[10],7.78
same,glycan array binding signal (z-score),[11],0.884
same,glycan array binding signal (z-score),[12],1.65
same,glycan array binding signal (z-score),[13],6.03
same,glycan array binding signal (z-score),[14],1.14
same,glycan array binding signal (z-score),[15],-0.087
same,glycan array binding signal (z-score),[16],1.71
same,glycan array binding signal (z-score),[17],5.37
same,glycan array binding signal (z-score),[18],0.394
same,glycan array binding signal (z-score),[19],0.457
same,glycan array binding signal (z-score),[20],1.52
same,glycan array binding signal (z-score),[21],0.296
same,glycan array binding signal (z-score),[22],13.8
same,glycan array binding signal (z-score),[23],-0.183
same,glycan array binding signal (z-score),[24],-0.173
same,glycan array binding signal (z-score),[25],-0.186
same,glycan array binding signal (z-score),[26],-0.182
same,glycan array binding signal (z-score),[27],-0.19
same,glycan array binding signal (z-score),[28],-0.208
same,glycan array binding signal (z-score),[29],-0.212
same,glycan array binding signal (z-score),[30],-0.229
same,glycan array binding signal (z-score),[31],-0.12
same,glycan array binding signal (z-score),[32],-0.114
same,glycan array binding signal (z-score),[33],-0.227
same,glycan array binding signal (z-score),[34],-0.164
same,glycan array binding signal (z-score),[35],-0.209
same,glycan array binding signal (z-score),[36],-0.155
same,glycan array binding signal (z-score),[37],-0.171
same,glycan array binding signal (z-score),[38],-0.151

# — the supplement of paper PMC8728848
